Assay results from PubChem BioAssay AID2147 (National Center for Advancing Translational Sciences (NCATS), 2009).
“And” between values parts separate entries of the source, which are not always exact repeats. Equal values may be shown once. Screen size: about 230,000 compounds; about 3,600 (1.6%) were called active. Inconclusive means that the source gave no clear call. Such entries were picked first, then a sample of the others. The call rests on the fitted dose curve; in most records, active means well fitted inhibition curve with a large enough effect (not every such curve was filed as active); inconclusive means small, poorly fitted or top-dose-only effect, or another doubt; inactive means no such curve, though single readings can be large or run the other way. A potency beside an inconclusive call is a rough fit, not a confirmed value.

These molecules were tested against Lysine-specific demethylase 4E (Homo sapiens) (UniProt B2RXH2) (assay: qHTS Assay for Inhibitors of Human Jumonji Domain Containing 2E (JMJD2E)). Conditions: JMJD2E catalytic domain, FDH-coupled NADH fluorescence (FDH is formaldehyde dehydrogenase); series mostly up to 57.1 µM; activity change, negative = inhibition: at the top concentration.
Further: nearly all actives have a fitted effect of over 50% in size.
Potency means the concentration at half of the fitted maximal effect; tags describe the fitted curve by direction and shape.
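Wherever activity change, negative = inhibition is given: 0% = wells with enzyme and -100% = buffer wells without enzyme.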

Chain of UniProt B2RXH2 (B2RXH2 whole entry, looked up, the tested form may be a part): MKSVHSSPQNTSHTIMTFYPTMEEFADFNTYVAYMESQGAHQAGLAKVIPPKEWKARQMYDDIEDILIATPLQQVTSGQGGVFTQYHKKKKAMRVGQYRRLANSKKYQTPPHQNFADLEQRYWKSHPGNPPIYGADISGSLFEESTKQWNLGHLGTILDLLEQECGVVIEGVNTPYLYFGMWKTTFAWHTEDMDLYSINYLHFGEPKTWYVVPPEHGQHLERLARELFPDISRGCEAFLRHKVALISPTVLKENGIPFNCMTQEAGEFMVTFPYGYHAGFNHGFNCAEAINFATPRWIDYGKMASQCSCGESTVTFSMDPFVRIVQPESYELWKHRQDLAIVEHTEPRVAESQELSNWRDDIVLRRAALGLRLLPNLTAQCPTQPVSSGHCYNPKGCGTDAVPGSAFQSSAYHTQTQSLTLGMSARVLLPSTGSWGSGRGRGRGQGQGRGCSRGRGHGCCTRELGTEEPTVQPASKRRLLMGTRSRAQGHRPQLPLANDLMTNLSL

SMILES | Potency | activity change, negative = inhibition
O=c1[nH]c2ccc(S(=O)(=O)N3CCN(Cc4ccccc4)CC3)cc2[nH]c1=O | inconclusive: 35.5 µM [inhibitor, single point] | –
CC1CC1C(=O)OCC(=O)NCc1ccccc1Cl (configuration not stated) | – | inactive: -1%
CC(=C1C(=O)c2ccccc2C1=O)N1CCN(c2ccc(F)cc2)CC1 | inconclusive: 39.8 µM [inhibitor, single point] | –
O=C1c2ccccc2C(=O)N1c1nc(-c2cccs2)cs1 | inconclusive: 31.6 µM [inhibitor, single point] | –
C(=N\Nc1nc(-c2cccnc2)nc2ccccc12)/c1ccccc1 | inconclusive: 31.6 µM [inhibitor, single point] | –
COc1c(C)c2c(c(O)c1C/C=C(\C)CCC(=O)O)C(=O)OC2 | inconclusive: 8.91 µM [inhibitor, full curve] and inconclusive: 35.5 µM [inhibitor, partial curve] and inconclusive: 28.2 µM [inhibitor, single point] | –
Nc1nc2nc(-c3ccc(Cl)cc3)cc(C(F)(F)F)n2n1 | inconclusive: 8.91 µM [inhibitor, partial curve] | –
CCC(C)C(=O)Nc1cc(Cl)ccc1C(=O)O (configuration not stated) | inconclusive: 39.8 µM [inhibitor, single point] | –
COc1cccc(CNC(=O)CSc2cc(=O)n(C)c3ccccc23)c1 | inconclusive: 35.5 µM [inhibitor, single point] | –
O=C(Cn1ncc2c(=O)oc3ccccc3c21)N1CCN(c2ccccn2)CC1 | inconclusive: 35.5 µM [inhibitor, single point] | –
COc1cc(C2Nc3ccccc3C(=O)N2c2ccccc2)c(Br)cc1OCC(=O)O (configuration not stated) | inconclusive: 14.1 µM [inhibitor, partial curve] | –
O=C(Nc1ccc(Oc2ccc(Cl)cc2)cc1)c1ncn[nH]1 | inconclusive: 39.8 µM [inhibitor, single point] | –
S=c1[nH]nc(-c2ccco2)n1/N=C/c1ccc(Cl)c(Cl)c1 | – | inactive: -2.22%
CCN(C(=O)COC(=O)c1cc(-c2cccc3ccccc23)nc2ccccc12)C1CCS(=O)(=O)C1 (configuration not stated) | inconclusive: 35.5 µM [inhibitor, single point] | –
Cc1ccc(Nc2nc(-c3ccc(S(=O)(=O)N4CCOCC4)cc3)cs2)cc1Cl | inconclusive: 10 µM [inhibitor, partial curve] | –
O=[N+]([O-])c1cc(Cl)cc(/C=N/Nc2nc3ccccc3s2)c1O | inconclusive: 39.8 µM [inhibitor, single point] | –
CCCCC(=O)NC(=S)Nc1ccc(S(=O)(=O)N2CCCC2)cc1 | – | inactive: 2.29%
CC1CCCN(C2=C(Cl)C(=O)N(c3cccc(Cl)c3)C2=O)C1 (configuration not stated) | – | inactive: -16.6%
O=C(Nc1ncc2c(n1)-c1ccccc1OC2)c1ccc(Cl)cc1 | inconclusive: 35.5 µM [inhibitor, partial curve] | –
CC(=O)Nc1ccc(C(=O)Nc2nc(-c3cccnc3)cs2)cc1 | inconclusive: 39.8 µM [inhibitor, single point] | –
Cc1cc(/C=C2\SC(=S)NC2=O)c(C)n1-c1ccc(O)cc1 | inconclusive: 35.5 µM [inhibitor, single point] | –
O=C(N/N=C/c1ccc2cccc(OCc3ccccc3)c2n1)c1ccc(Cl)cc1 | inconclusive: 12.6 µM [inhibitor, partial curve] | –
Cc1ccc(C)c(OCCCC(=O)Nc2ccc(N3CCOCC3)cc2)c1 | inconclusive: 28.2 µM [inhibitor, single point] | –

SMILES | Potency | activity change, negative = inhibition
Cn1cc(-c2ccccc2C(N)=O)c(=O)c2ccccc21 | inconclusive: 31.6 µM [inhibitor, single point] | –
CCOC(=O)C1CCCN(Cc2ccccc2Cl)C1 (configuration not stated) | inconclusive: 39.8 µM [inhibitor, single point] | –
O=C(Nc1cccc(-c2nnc(-c3ccco3)o2)c1)C(c1ccccc1)c1ccccc1 | inconclusive: 28.2 µM [inhibitor, partial curve] | –
O=C(CSc1nnc(-c2ccc(O)cc2)o1)Nc1ccc2c(c1)OCCO2 | – | inactive: 0.881%
CCCCC(=O)NC(=S)NNC(=O)CC | inconclusive: 39.8 µM [inhibitor, single point] | –
CCCc1cc(=O)oc2cc(OCC(=O)Nc3cc(C)on3)ccc12 | inconclusive: 28.2 µM [inhibitor, partial curve] | –
Cc1ccccc1Oc1ncnc2oc(-c3ccccc3)cc12 | inconclusive: 35.5 µM [inhibitor, single point] | –
CCCCOc1ccc(-c2ncc(N)cn2)cc1 | inconclusive: 28.2 µM [inhibitor, partial curve] | –
O=C(c1ccco1)N1CCN(Cc2cccnc2)CC1 | inconclusive: 39.8 µM [inhibitor, single point] | –
COC(=O)C1=C(N)Oc2cc(C)n(C)c(=O)c2C1c1ccc(Cl)cc1 (configuration not stated) | – | inactive: 3.33%
O=C(Nc1ccc(Cl)cc1)c1ccc(-c2ccccn2)s1 | inconclusive: 25.1 µM [inhibitor, partial curve] | –
COc1ccc2c(c1)C1=C(CC2)C(c2ccc(C)cc2)NC(=S)N1 (configuration not stated) | – | inactive: -23.7%
CCOC(=O)C1=C(C)NC(C)=C(C(=O)OCC)C1C(=O)OCC(=O)N1CCc2ccccc2C1 | inconclusive: 11.2 µM [inhibitor, partial curve] | –
COC(=O)C1=C(N)OC2=C(C(=O)CCC2)C1c1cccnc1 (configuration not stated) | – | inactive: -6.45%
Cc1ccc(N2C(=O)SC(N(CC(=O)O)c3cccc(C)c3)C2=O)cc1 (configuration not stated) | – | inactive: -9.21%
COc1ccccc1OCC(O)Cn1c(=N)n(Cc2ccccc2)c2ccccc21 (configuration not stated) | – | inactive: -6.81%
COC(=O)C1=C(CSc2nc3c(cc2C#N)CN(C)CC3)OC(N)=C(C#N)C1c1ccc(F)cc1 (configuration not stated) | inconclusive: 14.1 µM [inhibitor, partial curve] | –
COc1ccc(NC(=S)Nn2cnnc2)cc1OC | – | inactive: -16.7%
N#CCC(=O)Nc1ccc(C(=O)Nc2cccc(S(N)(=O)=O)c2)cc1 | inconclusive: 39.8 µM [inhibitor, single point] | –
COc1cc(NC(=O)c2ccccc2F)ccc1NC(=O)c1ccccc1Cl | inconclusive: 39.8 µM [inhibitor, single point] | –
CC1CCCCN1C(=O)COc1ccc2ccc(=O)oc2c1 (configuration not stated) | inconclusive: 28.2 µM [inhibitor, partial curve] | –
CCC(=O)N/N=C(\C)CC(=O)Nc1ccc2ccccc2c1 | inconclusive: 39.8 µM [inhibitor, single point] | –
CCC1(C)OC(=O)N2CCc3c(C)[nH]c4c(C)ccc(c34)C21C (configuration not stated) | inconclusive: 39.8 µM [inhibitor, single point] | –

SMILES | Potency | activity change, negative = inhibition
CCOC(=O)c1cnn2c(C)cc(-c3ccccc3)nc12 | inconclusive: 31.6 µM [inhibitor, partial curve] | –
COc1cccc(-c2cnc(NCc3cc(Cl)ccc3O)n2C)c1 | inconclusive: 35.5 µM [inhibitor, single point] | –
CCn1nc(C)c(CN2CCc3c([nH]c4ccccc34)C2C(C)(C)C)c1C (configuration not stated) | inconclusive: 28.2 µM [inhibitor, partial curve] | –
CC1(C)Cc2c(c(-c3ccco3)nc3sc4c(NCCCO)ncnc4c23)CO1 | inconclusive: 8.91 µM [inhibitor, partial curve] | –
CC(=O)Oc1ccc2c(=O)c(-c3ccccc3)coc2c1 | inconclusive: 39.8 µM [inhibitor, single point] | –
c1csc(-c2nc(-c3ccc(-c4ccon4)s3)no2)c1 | inconclusive: 28.2 µM [inhibitor, partial curve] | –
O=C(Cn1nnc(-c2ccccc2)n1)N/N=C/c1cc([N+](=O)[O-])ccc1O | – | inactive: -2.98%
Cc1ccc(C(=O)Nc2ccc(C)c(S(=O)(=O)Nc3ccccc3Cl)c2)s1 | inconclusive: 20 µM [inhibitor, partial curve] | –
NS(=O)(=O)c1cc(C(=O)N=Nc2c(O)[nH]c3ccccc23)ccc1Cl | – | inactive: 0.914%
c1cncc(CSc2nnc3ccc(-c4cccs4)nn23)c1 | inconclusive: 25.1 µM [inhibitor, partial curve] | –
O=C(Nc1nc2ccccc2s1)c1cc2c(s1)-c1ccccc1OC2 | inconclusive: 17.8 µM [inhibitor, partial curve] | –
CCOCCCn1cnc2c(c1=O)c1nc3ccccc3nc1n2-c1ccccc1 | inconclusive: 12.6 µM [inhibitor, partial curve] | –
COc1ccc2[nH]c(=O)c(C(c3nnnn3C3CCCCC3)N3CCN(C)CC3)cc2c1 (configuration not stated) | inconclusive: 28.2 µM [inhibitor, partial curve] | –
COc1ccccc1-n1cnc2c(c1=O)c1nc3ccccc3nc1n2-c1ccc(C)c(C)c1 | inconclusive: 28.2 µM [inhibitor, single point] | –
CCOc1ccccc1CN1CCN(Cc2cc3ccccc3[nH]2)CC1CCO (configuration not stated) | inconclusive: 28.2 µM [inhibitor, single point] | –
CCCCOc1cccc(C(=O)NC(=S)Nc2cccnc2)c1 | – | inactive: -6.17%
COC(=O)c1scc(C)c1N/N=C(\C)c1ccc(F)cc1F | inconclusive: 35.5 µM [inhibitor, single point] | –
CC(C)NC(=O)c1cc2nc(-c3ccco3)cc(C(F)(F)F)n2n1 | inconclusive: 28.2 µM [inhibitor, partial curve] | –
O=C(/C=C/c1cccc(F)c1)c1ccc(N2CCOCC2)cc1 | – | inactive: 6.79%
Cc1ccc(-n2ncc3c(=O)n(CC(=O)Nc4cccc(Cl)c4)cnc32)cc1C | inconclusive: 22.4 µM [inhibitor, partial curve] | –
O=C(C[n+]1ccc(-c2nnc3n2CCC3)cc1)c1ccc(Cl)cc1 | inconclusive: 12.6 µM [inhibitor, partial curve] | –
